In the CheMixHub viscosity set:

| SMILES | viscosity (303.15 K, 101.33 kPa) | viscosity (313.15 K, 101.33 kPa) | viscosity (293.15 K, 101 kPa) | viscosity (293.15 K, 101.33 kPa) | viscosity (303.15 K, 101 kPa) | viscosity (308.15 K, 101 kPa) | viscosity (308.15 K, 101.3 kPa) | viscosity (313.15 K, 101 kPa) | viscosity (318.15 K, 101 kPa) | viscosity (323.15 K, 101 kPa) | viscosity (298.15 K, 101 kPa) | viscosity (298.15 K, 101.33 kPa) | viscosity (308.15 K, 101.33 kPa) |
| --- | --- | --- | --- | --- | --- | --- | --- | --- | --- | --- | --- | --- | --- |
| CCCCCCCO | 4.771 ± 0.21 mPa·s [study A] and 4.995 ± 0.22 mPa·s [study B] and 4.785 ± 0.029 mPa·s [study C] and 4.759 ± 0.055 mPa·s [study D] and 4.785 ± 0.036 mPa·s [study E] and 4.785 ± 0.053 mPa·s [study F] and 4.783 ± 0.054 mPa·s, 4.681 ± 0.053 mPa·s [study G] | 3.579 ± 0.023 mPa·s [study A] and 3.579 ± 0.027 mPa·s [study B] and 3.671 ± 0.085 mPa·s [study C] and 3.671 ± 0.028 mPa·s [study D] and 3.579 ± 0.041 mPa·s (2×) [study E] | – | – | – | – | – | – | – | – | – | – | – |
| CS(C)=O | 1.79 ± 0.07 mPa·s [study A] and 2.025 ± 0.042 mPa·s [study B] and 1.778 ± 0.018 mPa·s [study C] and 1.662 ± 0.011 mPa·s [study D] | – | 2.226 ± 0.029 mPa·s [study A] and 2.27 ± 0.05 mPa·s [study B] and 2.2 ± 0.019 mPa·s [study C] and 2.191 ± 0.07 mPa·s [study D] and 2.18 ± 0.03 mPa·s [study E] and 2.184 ± 0.057 mPa·s [study F] and 2.184 ± 0.022 mPa·s [study G] and 2.23 ± 0.06 mPa·s [study H] | 2.48 ± 0.05 mPa·s, 2.479 ± 0.051 mPa·s [study A] and 2.244 ± 0.067 mPa·s [study B] and 2.194 ± 0.1 mPa·s [study C] | 1.79 ± 0.02 mPa·s, 1.729 ± 0.044 mPa·s, 1.7 ± 0.021 mPa·s, 1.73 ± 0.02 mPa·s, 1.794 ± 0.011 mPa·s, 1.786 ± 0.022 mPa·s, 1.791 ± 0.017 mPa·s, 1.79 ± 0.05 mPa·s, 1.784 ± 0.023 mPa·s, 1.7 ± 0.015 mPa·s, 1.55 ± 0.15 mPa·s, 1.732 ± 0.056 mPa·s [several studies] | 1.69 ± 0.07 mPa·s [study A] and 1.48 ± 0.14 mPa·s [study B] and 1.631 ± 0.016 mPa·s [study C] and 1.554 ± 0.05 mPa·s [study D] and 1.69 ± 0.04 mPa·s [study E] and 1.59 ± 0.01 mPa·s [study F] and 1.563 ± 0.04 mPa·s [study G] | 1.601 ± 0.042 mPa·s, 1.604 ± 0.042 mPa·s [study A] and 1.63 ± 0.039 mPa·s, 1.63 ± 0.077 mPa·s [study B] | 1.5 ± 0.03 mPa·s, 1.448 ± 0.037 mPa·s, 1.498 ± 0.015 mPa·s, 1.498 ± 0.02 mPa·s, 1.55 ± 0.06 mPa·s, 1.39 ± 0.13 mPa·s, 1.49 ± 0.03 mPa·s, 1.555 ± 0.02 mPa·s, 1.427 ± 0.046 mPa·s [several studies] | 1.42 ± 0.06 mPa·s [study A] and 1.31 ± 0.13 mPa·s [study B] and 1.27 ± 0.041 mPa·s [study C] and 1.42 ± 0.03 mPa·s [study D] and 1.42 ± 0.03 mPa·s [study E] and 1.342 ± 0.034 mPa·s [study F] | 1.32 ± 0.06 mPa·s [study A] and 1.27 ± 0.017 mPa·s [study B] and 1.311 ± 0.017 mPa·s [study C] and 1.19 ± 0.03 mPa·s [study D] and 1.27 ± 0.034 mPa·s [study E] and 1.27 ± 0.012 mPa·s [study F] and 1.278 ± 0.016 mPa·s [study G] | – | – | – |
| CCCCCCCCCC | – | – | – | – | – | 0.732 ± 0.011 mPa·s [study A] and 0.74 ± 0.006 mPa·s [study B] and 0.7337 ± 0.009 mPa·s [study C] and 0.7371 ± 0.012 mPa·s [study D] | – | – | – | – | 0.86 ± 0.04 mPa·s [study A] and 0.8372 ± 0.013 mPa·s [study B] and 0.8372 ± 0.0084 mPa·s [study C] and 0.86 ± 0.008 mPa·s [study D] | 0.8391 ± 0.0072 mPa·s [study A] and 0.831 ± 0.011 mPa·s [study B] and 0.832 ± 0.021 mPa·s [study C] and 0.8459 ± 0.022 mPa·s, 0.8459 ± 0.011 mPa·s [study D] and 0.844 ± 0.006 mPa·s [study E] and 0.844 ± 0.011 mPa·s [study F] and 0.848 ± 0.011 mPa·s [study G] and 0.82 ± 0.015 mPa·s [study H] | 0.721 ± 0.019 mPa·s [study A] and 0.733 ± 0.005 mPa·s [study B] and 0.733 ± 0.011 mPa·s [study C] and 0.74 ± 0.01 mPa·s [study D] and 0.711 ± 0.011 mPa·s [study E] |

± gives the uncertainty stated by the source. A number of entries come with more than one value. They are shown here; other results are not. The source may hold further records. Values that stand side by side are repeats across runs, samples, wells, individuals or studies. What stands in brackets tells the records apart. Letters count within one entry. Counts like (3×) say how often a value occurs here.
